Consider 32 compounds from the supplement of paper PMC4604168 (melanoma cell lines).

The list shows a part of the results. Repeats are few or missing, and single values can be far off.
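Also: cells treated in 1,536-well plates, then fixed and DAPI-stained, with nuclei counted from automated high-throughput microscope images.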

The test system of one assay is 501Mel. As to the kind of experiment: cell count relative to DMSO control; melanoma cells; higher = more viable cells. Conditions: library dose: standard library concentration; 72 h.
With `COc1cc(Nc2ncc(F)c(Nc3ccc4c(n3)NC(=O)C(C)(C)O4)n2)cc(OC)c1OC` [Tamatinib] + O=C(Nc1ccccc1)c1cc([N+](=O)[O-])ccc1Cl [GW9662] (first compound 2 µM, partner dose 10 µM), the cell count was 51.2%.
Same read-out and setting: under `CC1(C)NC(=O)N(c2ccc([N+](=O)[O-])c(C(F)(F)F)c2)C1=O` [nilutamide] + CCN(CC)CCCCNc1ncc2cc(-c3cc(OC)cc(OC)c3)c(NC(=O)NC(C)(C)C)nc2n1 [PD173074] (first compound 5 µM, partner dose 0.5 µM) stands 84.5%; under `Cn1cncc1[C@@](N)(c1ccc(Cl)cc1)c1ccc2c(c1)c(-c1cccc(Cl)c1)cc(=O)n2C` [tipifarnib] + COc1cc(N2CCC(N3CCN(C)CC3)CC2)ccc1Nc1ncc(Cl)c(Nc2ccccc2S(=O)(=O)C(C)C)n1 [NVP-TAE684] (first compound 0.05 µM, partner dose 0.4 µM), 46.7%.
The same measure, in the same setting: under `C[C@@H]1CCN(C(=O)CC#N)C[C@@H]1N(C)c1ncnc2[nH]ccc12` + Cn1cc(/C=C2\C(=O)Nc3cccnc32)c2ccccc21 [GW441756] (first compound 5 µM, partner dose 2 µM) stands 91.8%; under `CC1(C)NC(=O)N(c2ccc([N+](=O)[O-])c(C(F)(F)F)c2)C1=O` [nilutamide] + COc1cc2ncnc(Nc3ccc(Oc4ccccc4)cc3)c2cc1OC [SrcI1] (first compound 5 µM, partner dose 10 µM), 89.2%; under `Cn1cncc1[C@@](N)(c1ccc(Cl)cc1)c1ccc2c(c1)c(-c1cccc(Cl)c1)cc(=O)n2C` [tipifarnib] + O=C(O)C(=O)Nc1sc2c(c1C(=O)O)CCNC2 [TCS401] (first compound 0.05 µM, partner dose 8.33333 µM), 70.6%.
`O=c1[nH]nc(Sc2ncc([N+](=O)[O-])s2)n1-c1ccc2c(c1)OCCO2` + Oc1nc(-c2ccc(C(F)(F)F)cc2)nc2c1CSCC2 [XAV939] (first compound 1 µM, partner dose 10 µM) gave a cell count of 113%.

The subject of the next assay is A101D. The assay is described as above. Conditions: library dose: standard library concentration; 72 h.
In turn, `O=C(O)c1ccc(-c2c[nH]c3ncc(-c4ccccc4)cc23)cc1C1CCCC1` + CCc1ccc(CCOc2ccc(CC3SC(=O)NC3=O)cc2)nc1 [pioglitazone] (first compound 0.8 µM, partner dose 10 µM) had a cell count of 95.8%.
Consider `Cn1cncc1[C@@](N)(c1ccc(Cl)cc1)c1ccc2c(c1)c(-c1cccc(Cl)c1)cc(=O)n2C` [tipifarnib] + Oc1cc(-c2nc(-c3ccccc3)[nH]c2-c2ccncc2)ccc1Cl [L779450] (first compound 0.05 µM, partner dose 1 µM), for which the cell count worked out at 71.1%.
Still for that read-out and setting: for `C[C@@H]1CCN(C(=O)CC#N)C[C@@H]1N(C)c1ncnc2[nH]ccc12` + O=c1cc(-c2cccc3c2Sc2ccccc2S3)oc(N2CCOCC2)c1 [KU55933] (first compound 5 µM, partner dose 5 µM) the value was 88.1%; for `O=C(Nc1cccc(Cl)c1)Nc1ncc(CCNc2ncnc3ccsc23)s1` + CCN(CC)CCCCNc1ncc2cc(-c3cc(OC)cc(OC)c3)c(NC(=O)NC(C)(C)C)nc2n1 [PD173074] (first compound 0.004 µM, partner dose 0.5 µM), 78.6%; for `O=c1[nH]nc(Sc2ncc([N+](=O)[O-])s2)n1-c1ccc2c(c1)OCCO2` + Cn1cc(/C=C2\C(=O)Nc3cccnc32)c2ccccc21 [GW441756] (first compound 1 µM, partner dose 2 µM), 102%.
The same measure, in the same setting: under `CC1(C)NC(=O)N(c2ccc([N+](=O)[O-])c(C(F)(F)F)c2)C1=O` [nilutamide] + Oc1nc(-c2ccc(C(F)(F)F)cc2)nc2c1CSCC2 [XAV939] (first compound 5 µM, partner dose 10 µM) stands 109%; under `CC1(C)NC(=O)N(c2ccc([N+](=O)[O-])c(C(F)(F)F)c2)C1=O` [nilutamide] + N#Cc1c(O)c2c(-c3ccc(-c4ccccc4O)cc3)csc2[nH]c1=O [A769662] (first compound 5 µM, partner dose 10 µM), 95.7%.
The same measure, in the same setting: under `O=C(O)c1ccc(-c2c[nH]c3ncc(-c4ccccc4)cc23)cc1C1CCCC1` + COc1ccc(COc2ccc(Cc3cnc(N)nc3N)cc2OC)cc1 [GW2580] (first compound 0.8 µM, partner dose 5 µM) stands 117%; under `O=C(Nc1cccc(Cl)c1)Nc1ncc(CCNc2ncnc3ccsc23)s1` + COc1cc(N2CCC(N3CCN(C)CC3)CC2)ccc1Nc1ncc(Cl)c(Nc2ccccc2S(=O)(=O)C(C)C)n1 [NVP-TAE684] (first compound 0.004 µM, partner dose 0.4 µM), 95.2%.
Compound `C[C@@H]1CCN(C(=O)CC#N)C[C@@H]1N(C)c1ncnc2[nH]ccc12` + COc1ccc(COc2ccc(Cc3cnc(N)nc3N)cc2OC)cc1 [GW2580] (first compound 5 µM, partner dose 5 µM) came in with a cell count of 88.8%.
Still for that read-out and setting: for `COc1cc(Nc2ncc(F)c(Nc3ccc4c(n3)NC(=O)C(C)(C)O4)n2)cc(OC)c1OC` [Tamatinib] + COc1ccc(-c2ccc3c(N4CCOCC4)nc(N4C[C@@H](C)O[C@@H](C)C4)nc3n2)cc1CO [KU0063794] (first compound 2 µM, partner dose 0.1 µM) the value was 36.5%.
For `COc1cc(Nc2ncc(F)c(Nc3ccc4c(n3)NC(=O)C(C)(C)O4)n2)cc(OC)c1OC` [Tamatinib] + COc1cc(N2CCC(N3CCN(C)CC3)CC2)ccc1Nc1ncc(Cl)c(Nc2ccccc2S(=O)(=O)C(C)C)n1 [NVP-TAE684] (first compound 2 µM, partner dose 0.4 µM), the cell count was determined as 16%.
Still for that read-out and setting: under `C[C@@H]1CCN(C(=O)CC#N)C[C@@H]1N(C)c1ncnc2[nH]ccc12` + N#Cc1c(O)c2c(-c3ccc(-c4ccccc4O)cc3)csc2[nH]c1=O [A769662] (first compound 5 µM, partner dose 10 µM) stands 101%.
On the same count and under the same terms, under `O=C(O)c1ccc(-c2c[nH]c3ncc(-c4ccccc4)cc23)cc1C1CCCC1` + Oc1nc(-c2ccc(C(F)(F)F)cc2)nc2c1CSCC2 [XAV939] (first compound 0.8 µM, partner dose 10 µM) stands 82.1%.
Same read-out and setting: for `COc1cc(Nc2ncc(F)c(Nc3ccc4c(n3)NC(=O)C(C)(C)O4)n2)cc(OC)c1OC` [Tamatinib] + N#Cc1c(O)c2c(-c3ccc(-c4ccccc4O)cc3)csc2[nH]c1=O [A769662] (first compound 2 µM, partner dose 10 µM) the value was 41.5%.
Turning to `Cn1cncc1[C@@](N)(c1ccc(Cl)cc1)c1ccc2c(c1)c(-c1cccc(Cl)c1)cc(=O)n2C` [tipifarnib] + COc1ccc(-c2ccc3c(N4CCOCC4)nc(N4C[C@@H](C)O[C@@H](C)C4)nc3n2)cc1CO [KU0063794] (first compound 0.05 µM, partner dose 0.1 µM), the cell count was 71.6%.
Still for that read-out and setting: for `O=C(O)c1ccc(-c2c[nH]c3ncc(-c4ccccc4)cc23)cc1C1CCCC1` + Cc1cc([N+](=O)[O-])ccc1NS(=O)(=O)c1cc(Cl)ccc1Cl [FH535] (first compound 0.8 µM, partner dose 5 µM) the value was 61.2%; for `COc1cc(Nc2ncc(F)c(Nc3ccc4c(n3)NC(=O)C(C)(C)O4)n2)cc(OC)c1OC` [Tamatinib] + COc1ccc(COc2ccc(Cc3cnc(N)nc3N)cc2OC)cc1 [GW2580] (first compound 2 µM, partner dose 5 µM), 59.4%; for `O=C(O)c1ccc(-c2c[nH]c3ncc(-c4ccccc4)cc23)cc1C1CCCC1` + Cn1cc(/C=C2\C(=O)Nc3cccnc32)c2ccccc21 [GW441756] (first compound 0.8 µM, partner dose 2 µM), 109%.
`O=c1[nH]nc(Sc2ncc([N+](=O)[O-])s2)n1-c1ccc2c(c1)OCCO2` + COc1ccc(-c2ccc3c(N4CCOCC4)nc(N4C[C@@H](C)O[C@@H](C)C4)nc3n2)cc1CO [KU0063794] (first compound 1 µM, partner dose 0.1 µM): the cell count worked out at 75.1%.
As for `C[C@@H]1CCN(C(=O)CC#N)C[C@@H]1N(C)c1ncnc2[nH]ccc12` + c1cc(-c2cnn3cc(-c4ccc(OCCN5CCCCC5)cc4)cnc23)ccn1 [Dorsomorphin] (first compound 5 µM, partner dose 2 µM), the cell count worked out at 103%.
Still for that read-out and setting: under `O=C(O)c1ccc(-c2c[nH]c3ncc(-c4ccccc4)cc23)cc1C1CCCC1` + CCN(CC)CCCCNc1ncc2cc(-c3cc(OC)cc(OC)c3)c(NC(=O)NC(C)(C)C)nc2n1 [PD173074] (first compound 0.8 µM, partner dose 0.5 µM) stands 101%; under `CC1(C)NC(=O)N(c2ccc([N+](=O)[O-])c(C(F)(F)F)c2)C1=O` [nilutamide] + O=S(=O)(c1ccccc1)N(CC(F)(F)F)c1ccc(C(O)(C(F)(F)F)C(F)(F)F)cc1 [T0901317] (first compound 5 µM, partner dose 7 µM), 85.3%.
Compound `O=C(Nc1cccc(Cl)c1)Nc1ncc(CCNc2ncnc3ccsc23)s1` + N#Cc1c(O)c2c(-c3ccc(-c4ccccc4O)cc3)csc2[nH]c1=O [A769662] (first compound 0.004 µM, partner dose 10 µM) registered a cell count of 86.1%.
The same measure, in the same setting: for `O=C(Nc1cccc(Cl)c1)Nc1ncc(CCNc2ncnc3ccsc23)s1` + COc1ccc(-c2ccc3c(N4CCOCC4)nc(N4C[C@@H](C)O[C@@H](C)C4)nc3n2)cc1CO [KU0063794] (first compound 0.004 µM, partner dose 0.1 µM) the value was 71.7%.
